Data reported in PubChem BioAssay AID624417 (National Center for Advancing Translational Sciences (NCATS), 2012).
Hit rate of the full screen: of about 410,000 compounds, about 6,400 (1.6%) were called active. Inconclusive results, whose numbers are uncertain, are shown with a selection of clear calls. The call rests on the fitted dose curve; in most records, active means well fitted inhibition curve with a large enough effect; inconclusive means small, poorly fitted or top-dose-only effect; inactive means no such curve, though single readings can be large or run the other way. No potency is given beside an inconclusive call; the fits are too rough.

What follows are compounds tested against Glucagon-like peptide 1 receptor (Homo sapiens) (UniProt P43220) (assay: qHTS of GLP-1 Receptor Inverse Agonists (Inhibition Mode)). Conditions: HEK293 GLP-1R CRE-luciferase, luminescence, 24 h, GLP-1R form is constitutively active; activity change, negative = inhibition: at 38.3 µM (top of the series) unless noted.
Method in brief: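 Luminescence readout: a drop in cAMP-driven luciferase signal flags inverse agonism at a constitutively active GLP-1R stably expressed in HEK293. Compound exposure lasted 24 hr at 37 deg C, 5% CO2.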
Further: nearly all actives have a fitted effect of over 55% in size.
On the % scale 0 is the no-effect control and ±100 the full control effect; potency means the concentration at half of the fitted maximal effect; tags describe the fitted curve by direction and shape.

Chain of UniProt P43220 (P43220 whole entry, looked up): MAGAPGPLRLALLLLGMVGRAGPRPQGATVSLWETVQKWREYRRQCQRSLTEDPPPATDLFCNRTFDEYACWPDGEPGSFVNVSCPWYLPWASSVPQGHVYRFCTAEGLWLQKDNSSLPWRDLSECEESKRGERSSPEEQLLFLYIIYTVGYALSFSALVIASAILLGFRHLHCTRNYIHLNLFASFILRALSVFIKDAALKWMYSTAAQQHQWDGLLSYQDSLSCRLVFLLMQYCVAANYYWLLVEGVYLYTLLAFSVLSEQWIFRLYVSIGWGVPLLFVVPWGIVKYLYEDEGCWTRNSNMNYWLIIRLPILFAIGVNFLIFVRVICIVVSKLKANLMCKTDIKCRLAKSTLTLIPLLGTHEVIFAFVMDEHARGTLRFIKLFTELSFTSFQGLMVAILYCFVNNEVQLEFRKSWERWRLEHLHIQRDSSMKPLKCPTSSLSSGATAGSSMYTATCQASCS

Row | SMILES | activity change, negative = inhibition | Potency
1 | CN1C(=O)NC2(O)C(=O)c3ccccc3C12O (stereo not given) | inactive: 0.579% | –
2 | O=C(Nc1cccc(NC(=O)c2ccc(Br)o2)n1)c1ccc(Br)o1 | inactive: 0% | –
3 | Cc1ccc(S(=O)(=O)Nc2ccccc2-c2ccccc2)cc1 | – | inconclusive [inhibitor, partial curve, poor fit]
4 | S=c1nc[nH]c2c1cnn2Cc1ccccc1 | inactive: 0.35% | –
5 | COc1ccc([C@H]2CC(=O)C=C(c3cc(Cl)ccc3C)C2)cc1 | – | inconclusive [inhibitor, single point]
6 | NC(=O)CC(NC(=O)Cc1ccc(Br)cc1)c1ccc(N2CCN(c3ccccc3)CC2)c([N+](=O)[O-])c1 (stereo not given) | – | inconclusive [inhibitor, single point]
7 | Cc1cc(C(=O)CN2C(=O)NC3(CCCc4ccccc43)C2=O)c(C)n1Cc1ccccc1 (stereo not given) | – | inconclusive [inhibitor, single point]
8 | C=CCNS(=O)(=O)c1cccc2cc(C(=O)O)c(O)cc12 | – | inconclusive [inhibitor, single point]
9 | Cc1ccc(C)c(N2CCN(CCCNC(=O)c3ccc4nc(C(C)C)oc4c3)CC2)c1 | – | inconclusive [inhibitor, partial curve, poor fit]
10 | COc1ccc(C(=O)Cn2c(C)nc([N+](=O)[O-])c2Br)cc1 | – | inconclusive [inhibitor, partial curve, poor fit]
11 | COc1ccc(OC)c(NC(=O)C2CCN(Cc3cnn(-c4ccccc4)c3-n3cccc3)CC2)c1 | inactive: -20.8% | –
12 | COc1ccc2c(c1)CCCO[C@]21O[C@H](CCO)C[C@H](O)[C@H]1O | inactive: -1.05% | –
13 | CN(C(=O)c1cccc(NC(=O)Cc2cccc([N+](=O)[O-])c2)c1)C1CCCC1 | – | inconclusive [inhibitor, partial curve, poor fit]
14 | Cc1cccc(NC(c2nnc(-c3ccccc3)o2)c2ccc(F)cc2Cl)c1C (stereo not given) | inactive: 4.24% | –
15 | Cc1nnc(SCC(=O)c2cc(C)n(-c3c(C)n(C)n(-c4ccccc4)c3=O)c2C)s1 | – | inconclusive [inhibitor, single point]
16 | COc1ccc(Cl)cc1NC(=O)CN(C1CCCCC1)S(C)(=O)=O | – | inconclusive [inhibitor, single point]
17 | CC(C)(C)NC(=O)CN(C(=O)CNC(=O)c1cccs1)c1ccc2c(c1)OCCO2 | – | inconclusive [inhibitor, single point]
18 | O=S(=O)(c1ccc(Br)cc1)N1CCn2cccc2C1c1ccc(Br)cc1 (stereo not given) | – | inconclusive [inhibitor, single point]
19 | COc1ccccc1CC(=O)OCC(=O)N1CCN(c2ccc(F)cc2)CC1 | – | inconclusive [inhibitor, single point]
20 | N#CC(CO)(Cc1ccc(OC(F)F)cc1)c1nc2ccccc2[nH]1 (stereo not given) | inactive: -25.6% | –
21 | CSc1ncccc1C(=O)OCC(=O)NC(C)C | – | inconclusive [inhibitor, partial curve, poor fit]
22 | COc1ccc(Nc2nc(NC(C)(C)C)nc(N3CCCC3)n2)c(OC)c1 | – | inconclusive [inhibitor, partial curve, poor fit]

Row | SMILES | activity change, negative = inhibition | Potency
23 | COc1cc(/C=N\NC(=O)CC#N)ccc1OC/C=C/c1ccccc1 | – | active: 12.6 µM
24 | CN(C(=O)CN1CCC(NC(=O)c2ccccc2Br)CC1)C1CCCCC1 | inactive: 2.26% | –
25 | COc1ccc(Cl)cc1C(=O)Nc1ccccc1N1CCN(C)CC1 | – | inconclusive [inhibitor, partial curve, poor fit]
26 | Cc1cc(C)c(C)c(S(=O)(=O)N2CCN(c3ccc(O)cc3)CC2)c1C | – | inconclusive [inhibitor, partial curve]
27 | Cc1ccc(-n2nnnc2CNC(=O)c2ccc([N+](=O)[O-])o2)cc1C | – | inconclusive [inhibitor, single point]
28 | COc1ccccc1C1CCN(C(=O)c2cccs2)CC1 | – | inconclusive [inhibitor, partial curve, poor fit]
29 | COc1ccc(C(=O)NCC(c2cccs2)S(=O)(=O)c2cccs2)cc1 (stereo not given) | inactive: -20.3% | –
30 | COC(=O)c1c(C)nc2ccccc2c1-c1ccccc1 | – | inconclusive [inhibitor, single point]
31 | Cc1cc(/C=N/NC(=O)C(=O)N2CCCC2)c(C)n1-c1cccc(Br)c1 | – | inconclusive [inhibitor, partial curve, poor fit]
32 | CC1=C(C(=O)OC2CCCCCC2)C(c2c(Cl)cccc2Cl)CC(=O)N1 (stereo not given) | – | inconclusive [inhibitor, single point]
33 | COc1ccccc1CCc1nnc(CCC(=O)NC(C)Cc2cccs2)o1 (stereo not given) | – | inconclusive [inhibitor, partial curve, poor fit]
34 | Cc1cccc2sc(N(CCN(C)C)C(=O)c3ccc4ccccc4c3)nc12 | – | inconclusive [inhibitor, single point]
35 | CCOC(=O)c1ccc(NC(=O)COc2ccccc2CNC2CCCC2)cc1 | – | inconclusive [inhibitor, partial curve, poor fit]
36 | CC(C)c1cc(C(=O)NC2CCCCCC2)c2ccccc2n1 | – | inconclusive [inhibitor, single point]
37 | CCOC(=O)[C@]12CCCC=C1N(Cc1cccc3ccccc13)C(=O)[C@H](CC(=O)N1CCCCC1)C2 | – | inconclusive [inhibitor, partial curve, poor fit]
38 | COc1ccc(CCNC(=O)c2cc(-c3ccc(C)c(C)c3)nc3ccccc23)cc1OC | inactive: -12.6% | –
39 | CC(=O)Nc1ccc2cc3ccc(NC(C)=O)cc3nc2c1 | inactive: 34.6% | –
40 | C=CCn1c(C)cc(C(=O)COC(=O)c2cncc(Br)c2)c1C | – | inconclusive [inhibitor, single point]
41 | CCN(CC)C(=N)/C(C#N)=N/Nc1ccc(C)cc1 | – | inconclusive [inhibitor, single point]
42 | CCOc1ccc(CCNC(c2nnc(-c3ccccc3)o2)c2ccccc2Cl)cc1OCC (stereo not given) | – | active: 10 µM
43 | CCCN(C(=O)Cn1nc(Cc2cccnc2)c2ccccc2c1=O)c1ccc(C(C)C)cc1 | – | inconclusive [inhibitor, single point]
44 | CCCCN(C(=O)c1ccc(Cl)cc1)C1CC2CCC(C1)N2C (stereo not given) | – | inconclusive [inhibitor, partial curve, poor fit]

Row | SMILES | activity change, negative = inhibition | Potency
45 | Fc1ccccc1CSc1nncn1NC/C=C/c1ccccc1 | – | inconclusive [inhibitor, single point]
46 | Cc1ccc(C(=O)COC(=O)c2cccc(NC(=O)c3ccc([N+](=O)[O-])cc3[N+](=O)[O-])c2)cc1 | – | inconclusive [inhibitor, single point]
47 | CC(C)N(C(=O)CO/N=C/c1cccc([N+](=O)[O-])c1)C(C)C | – | inconclusive [inhibitor, partial curve, poor fit]
48 | CC(C)N(C(=O)CSc1nc(Cc2ccccc2)nc2ccccc12)C(C)C | – | inconclusive [inhibitor, single point]
49 | Cc1cccc(C(=O)Nc2ccc3c(c2)nc(C)n3C)c1 | – | inconclusive [inhibitor, single point]
50 | CC(C)CSc1nsc(N)n1 | inactive: 57.6% | –
51 | C/C(=N\Nc1nc(C)cc(-c2ccccc2)n1)c1ccc(F)cc1 | – | inconclusive [inhibitor, partial curve, poor fit]
52 | COc1ccc(-c2sc3cc(OC)ccc3c2-c2ccc(OCCN3CCOCC3)cc2)cc1 | – | inconclusive [inhibitor, partial curve, poor fit]
53 | CCN(C(=O)C(C)N1C(=O)/C(=C/c2ccco2)SC1=S)C1CCS(=O)(=O)C1 (stereo not given) | – | inconclusive [inhibitor, partial curve, poor fit]
54 | O=C(O)CSc1nc2ccc(Cl)cc2[nH]1 | inactive: 10.7% | –
55 | Cc1ccc(/C(O)=C2\C(=O)C(=O)N(c3cc(C)on3)C2c2cccc(Cl)c2)cc1 (stereo not given) | – | inconclusive [inhibitor, single point]
56 | CCCCN(Cc1ccco1)C(=O)C1CCCN(c2ncnc3c2nc2n3CCCCC2)C1 (stereo not given) | – | inconclusive [inhibitor, partial curve, poor fit]
57 | O=C1N(c2ccccc2)C(c2ccc(Cl)cc2)N2CCCN12 (stereo not given) | – | inconclusive [inhibitor, partial curve, poor fit]
58 | COc1nc(-c2ccccc2)ccc1-c1noc(COc2ccccc2)n1 | – | inconclusive [inhibitor, single point]
59 | CCOC(=O)C1=CCN(S(=O)(=O)c2ccc(Cl)cc2)C1c1ccc(C)cc1 (stereo not given) | – | inconclusive [inhibitor, single point]
60 | CCc1ccc(C(=O)OCC(=O)N2CCCCCC2)cc1 | – | inconclusive [inhibitor, single point]
61 | CC1=C(C(=O)OC2CCCC2)C(c2ccc(Cl)cc2)CC(=O)N1 (stereo not given) | – | inconclusive [inhibitor, single point]
62 | CCc1cc[n+](C2=C([O-])c3ccccc3C(=O)/C2=N\S(=O)(=O)c2cccs2)cc1 | – | inconclusive [inhibitor, single point]
63 | CON(C)c1nc(C2CCCCC2)c2cc(C)ccc2n1 | – | inconclusive [inhibitor, single point]
64 | O=C(CSc1nc(-c2ccccc2)no1)N1CCN(c2ccc(F)cc2)CC1 | inactive: 6.64% | –
65 | Cc1cc(C)cc(NC(=O)CN(c2cccc(C)c2C)S(=O)(=O)c2ccccc2)c1 | – | inconclusive [inhibitor, single point]
